# Reference: PubChem BioAssay AID485344 (National Center for Advancing Translational Sciences (NCATS), 2010)
# The whole screen tested about 340,000 compounds, of which about 6,900 (2%) were called active. Cut-off read from the data, not from the text of the source: active = inhibition above about 30%; inactive = below that, where a call was filed. This is a selection; strong and weak results do not stand in their true shares. The source gives no active or inactive call for entries shown without one.
# Biological target: D(2) dopamine receptor (Homo sapiens) (UniProt P14416)
# UniProt P14416, sequence (P14416 whole entry, looked up): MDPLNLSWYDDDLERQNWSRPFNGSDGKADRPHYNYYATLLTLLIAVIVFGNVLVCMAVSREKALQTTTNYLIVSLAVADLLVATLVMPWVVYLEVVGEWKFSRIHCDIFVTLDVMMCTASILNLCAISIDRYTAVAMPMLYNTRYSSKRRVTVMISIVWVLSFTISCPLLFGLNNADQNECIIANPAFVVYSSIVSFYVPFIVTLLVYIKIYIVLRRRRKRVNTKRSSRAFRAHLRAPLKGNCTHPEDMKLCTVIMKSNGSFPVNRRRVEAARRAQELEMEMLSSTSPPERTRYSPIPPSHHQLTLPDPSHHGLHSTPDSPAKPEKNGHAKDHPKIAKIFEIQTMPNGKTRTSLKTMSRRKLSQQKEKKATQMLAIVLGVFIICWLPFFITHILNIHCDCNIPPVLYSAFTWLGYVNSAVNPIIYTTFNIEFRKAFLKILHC
# Experiment: HTS Assay for Allosteric Antagonists of the Human D2 Dopamine Receptor: Primary Screen for Antagonists; note: 0% is about no effect
# Conditions: HEK293 TREx D2 cells, calcium flux, dopamine EC80; at 10 µM; stronger effect = higher value
# Method in brief: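 Tetracycline-induced HEK293 TREx cells expressing D2 receptor forced-coupled to calcium signalling, loaded with no-wash calcium dye. Compounds added and calcium flux read 180 s, then dopamine added at EC80 and read a further 180 s.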
row,SMILES,inhibition
1,Cc1cccc(NC(=O)COc2ccc(-c3nn(C)c(=O)c4ccccc34)cc2)c1,7.69%
2,CCOc1ccc(CCNC(=O)CCCc2nnc3n(CC)c(=O)c4sccc4n23)cc1OCC,0.0938%
3,Cc1ccc(NC(=O)Cn2c(=O)n(Cc3nc(-c4ccccc4)no3)c(=O)c3ccccc32)cc1C,-2.94%
4,CCOc1ccc(NC(=O)CSc2nnc(-c3ccc(OCC)cc3)o2)cc1,-3.38%
5,COc1ccc(CNCCNC(=O)c2cccs2)cc1OC,active: 39.5%
6,Cc1ccc(CNC(=O)c2c(-c3ccccc3Cl)noc2C)o1,5.99%
7,Cc1coc2cc3oc(=O)c(CC(=O)NCc4cccc(Cl)c4)c(C)c3cc12,7.98%
8,O=C(NCCc1ccccc1)c1nn(-c2ccc(F)cc2)nc1CO,6.08%
9,Cc1cccc(CNC(=O)c2ccc3nc(Cc4ccccc4)oc3c2)c1,27.3%
10,CCOc1ccc(C2c3[nH]c4ccccc4c3CCN2C(=O)CSCc2ccc(F)cc2)cc1 (stereo not drawn),11.1%
11,COc1ccc(NC(=O)CSc2nnc(NC(=O)NC3CCCCC3)s2)cc1OC,1.54%
12,Cc1cccc(NC(=O)CS(=O)(=O)c2cccc3nsnc23)c1,-25.8%
13,Cc1ccc(CCNC(=O)c2c3c(nc4ccccc24)C(=O)N(C2CCCCC2)C3)cc1,13.8%
14,CC(=O)c1ccc(NS(=O)(=O)c2ccc3[nH]c4c(c3c2)CCCC4)cc1,-5.48%
15,O=S1(=O)CCOC[C@H](c2ccccc2)N1Cc1ccccc1,active: 30.2%
16,Cc1ccc(CNC(=O)c2c[nH]n3c(=O)c(Cc4ccc(Cl)cc4)c(C)nc23)cc1,-3.1%
17,O=C(NCCN1CCc2ccccc2C1)C1CC(=O)N(C2CCCC2)C1 (stereo not drawn),active: 32.6%
18,CCc1ccc(S(=O)(=O)c2cn(Cc3ccccc3F)c3cc(OC)c(OC)cc3c2=O)cc1,1.55%
19,COc1ccc(N2CCN(Cc3nc4c(c(=O)[nH]c(=O)n4C)n3CC(C)C)CC2)cc1,6.53%
20,O=C(NCc1cccc(Br)c1)c1ccc(NC(=O)N2CCCCc3ccccc32)cc1,15.5%
21,COCc1cc(C)nc(SCc2ccc(F)cc2)c1C#N,active: 41.6%

row,SMILES,inhibition
1,Cc1ccc(S(=O)(=O)c2nnn3c2nc(NCCc2ccccc2)c2sccc23)cc1,18.1%
2,O=C(NC1CCCC1)c1ccc2c(c1)N(Cc1ccccc1)C(=O)c1ccccc1S2,28.2%
3,CC1CCN(c2nc3ccc(C(=O)NCc4ccccc4Cl)cc3s2)CC1,20.4%
4,Cc1ccc(F)cc1NC(=O)Cn1c(C)cc(C)c(C#N)c1=O,1.82%
5,COc1ccc(C2=C(N3CCN(c4cccc(C)c4)C(C)C3)c3ccccc3C2=O)cc1 (stereo not drawn),-8.27%
6,CCCCC12CN3CC(C)(CN(C1)C3c1ccc(O)c(OC)c1)C2=O (stereo not drawn),-3.05%
7,COc1ccc(Cn2cc(C(=O)c3ccc(C)c(C)c3)c(=O)c3ccccc32)cc1,1.45%
8,CN(C)S(=O)(=O)c1cccc(NC(=S)NCc2ccc3c(c2)OCO3)c1,active: 51.6%
9,Cc1cccn2c(=O)c(C(=O)NCCc3ccccc3)cnc12,2.26%
10,CCOc1ccc(CCNC(=O)c2cc(C)nc3c2c(C)nn3-c2cccc(F)c2)cc1,-4.99%
11,COc1ccc(CNCCC(c2ccc3c(c2)OCO3)c2ccccc2OC)cc1 (stereo not drawn),-17.6%
12,CCCN1C(=O)/C(=C/c2ccc(C)s2)NC1=S,active: 31.4%
13,COc1cccc(NC(=O)CSc2nccn2C2CCCC2)c1,-11.8%
14,O=C(Cn1cc(S(=O)(=O)Cc2cccc(Cl)c2)c2ccccc21)Nc1ccccc1Cl,12.7%
15,Cc1ccc(-n2nc3c(=O)n(CC(=O)NCCC(C)C)nc(C)c3c2C)cc1,-3.81%
16,CC(CNC(=O)c1nnc(Cc2ccc(F)cc2)o1)c1ccccc1 (stereo not drawn),0.381%
17,COc1cc2ncc(C(=O)c3ccc(C)cc3)c(N3CCCCC3)c2cc1OC,16%
18,COCCCNC(=O)Cn1c(=O)nc(-c2ccccc2)c2ccccc21,-12.7%
19,Cc1oc(-c2ccccc2Cl)nc1Cn1c(SCc2cccc(F)c2)nc2cccnc21,4.44%
20,Cc1ccc(-n2c(=O)[nH]c3cc(C(=O)NCc4ccccc4)ccc3c2=O)cc1,4.27%
21,Cc1ccc(CCNS(=O)(=O)c2ccc3c(c2)CC(C)N3C(=O)C2CCC2)cc1 (stereo not drawn),1.86%

row,SMILES,inhibition
1,CC(=O)c1cccc(NC(=O)CC(c2ccc(C)cc2)N2Cc3ccccc3C2=O)c1 (stereo not drawn),16.7%
2,Cc1nc(-c2ccccc2)sc1-c1ccc(SCC(=O)NCc2ccc(Cl)cc2)nn1,-2.63%
3,Cc1cccc(OCC(=O)Nc2ccc(-c3nc4ccccc4o3)cc2)c1C,-1.61%
4,CC(C)CNC(=O)N1[C@H](c2cccs2)[C@@H](C)C(=O)[C@@H](C)[C@@H]1c1cccs1,18.6%
5,CCn1c(=N)n(CCOc2ccc(Br)cc2)c2ccccc21,-4.35%
6,COc1ccc(CC(=O)NCCc2csc(-c3cccc(C)c3)n2)cc1,-16.4%
7,CC(C)OCCCNC(=O)Cn1ccc2cc(S(=O)(=O)N3CCCCCC3)ccc21,-15%
8,COc1ccc(C)cc1NS(=O)(=O)c1c(C(=O)N2CCCCCC2)c(C)n(C)c1C,-3.97%
9,COc1ccc2cc(C(=O)NCc3ccc4c(c3)CCN4C(=O)c3ccc(F)cc3)[nH]c2c1,18.6%
10,O=C(COCc1cc(-c2cccs2)on1)N1CCN(c2cccc(Cl)c2)CC1,-19.7%
11,COc1cc(C)cc2oc(=O)c(CC(=O)NCCc3ccc(Cl)cc3)c(C)c12,12.5%
12,O=C(CCn1c(=O)c2cccn2c2cccnc21)N1CCN(c2ccccc2F)CC1,8.98%
13,CCN(C(=O)Nc1cn(CC(C)C)c(=O)c2ccccc12)c1cc(C)ccc1C,-14.4%
14,COc1ccccc1CN1C(=O)CN(C2CCCCCC2)C(=O)C1c1ccc(F)cc1 (stereo not drawn),-16.9%
15,Cc1c(Cl)cccc1NC(=O)C1CCN(c2ncnc3c2nc2n3CCCCC2)CC1,-0.346%
16,Cc1ccc2nc(Nc3ccc(C)c(F)c3)c3nncn3c2c1,7.35%
17,Cc1ccc(CNC(=O)CCn2cnc3ccccc3c2=O)cc1,2.27%
18,CCn1nc(C)c(CCN(C)C(=O)Nc2cc(OC)c(OC)c(OC)c2)c1C,14.5%
19,Cc1ccc(N2CC(NC(=O)c3ccc(S(=O)(=O)N4CCOCC4)cc3)CC2=O)cc1 (stereo not drawn),-19.7%
20,CCOC(=O)c1cnn(-c2ccc(C(=O)Nc3cccc(C(C)=O)c3)cc2)c1N,4.62%
21,CCOCCCNC(=O)CN1C(=O)COc2ccc(S(=O)(=O)N3CCCC3)cc21,7.83%
